These are yes or no findings as the source states them, for the method shown. Binding seen in cells or lysates may run through a third protein. Some entries that bind do so weakly or less than the wild type. Tags and fused reporters may be left off the sequences shown.

By UniProt entry, the sequences of proteins in these tests, tags left out.
UniProt Q7Z434: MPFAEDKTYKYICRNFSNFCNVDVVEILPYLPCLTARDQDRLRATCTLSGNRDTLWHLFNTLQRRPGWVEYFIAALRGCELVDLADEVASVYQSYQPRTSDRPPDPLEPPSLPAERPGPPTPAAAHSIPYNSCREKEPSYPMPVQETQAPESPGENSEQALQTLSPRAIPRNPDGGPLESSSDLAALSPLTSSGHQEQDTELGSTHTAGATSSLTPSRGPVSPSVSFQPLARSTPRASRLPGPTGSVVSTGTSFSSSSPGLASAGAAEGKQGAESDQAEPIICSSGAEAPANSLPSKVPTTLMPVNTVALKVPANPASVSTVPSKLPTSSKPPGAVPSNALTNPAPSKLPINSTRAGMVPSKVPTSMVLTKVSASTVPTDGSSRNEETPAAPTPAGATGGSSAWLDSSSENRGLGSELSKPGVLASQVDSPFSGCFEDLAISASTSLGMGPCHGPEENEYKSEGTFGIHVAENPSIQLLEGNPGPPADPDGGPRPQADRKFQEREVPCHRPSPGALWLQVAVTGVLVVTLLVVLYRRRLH

The target in test [1] is Flag-tagged IPS-1 (IFN promoter stimulator 1) (UniProt Q7Z434). Put plainly: co-IP; HEK293T co-transfected with tagged plasmids for 24 h, lysed in RIPA buffer; lysate with anti-Flag mAb or nonspecific mouse IgG at 4°C, protein A/G PLUS-Agarose, washed with PBS; western blot.
In another test the target is T1, Flag-tagged IRF3 (UniProt Q14653).
T1 sequence: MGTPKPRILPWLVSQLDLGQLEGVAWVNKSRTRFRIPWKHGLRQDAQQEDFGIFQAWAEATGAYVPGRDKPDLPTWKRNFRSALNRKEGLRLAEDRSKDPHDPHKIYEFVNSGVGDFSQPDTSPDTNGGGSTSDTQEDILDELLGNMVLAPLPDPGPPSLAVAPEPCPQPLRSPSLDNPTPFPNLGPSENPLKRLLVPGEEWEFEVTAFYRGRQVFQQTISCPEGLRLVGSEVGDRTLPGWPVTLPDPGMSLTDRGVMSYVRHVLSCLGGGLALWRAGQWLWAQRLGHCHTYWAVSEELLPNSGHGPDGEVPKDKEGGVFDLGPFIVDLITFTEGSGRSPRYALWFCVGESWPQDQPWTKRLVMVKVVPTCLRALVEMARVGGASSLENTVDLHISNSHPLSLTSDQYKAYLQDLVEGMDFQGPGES
The test is described as above.

The next test has as its target T2, Flag-tagged RIG-I (UniProt O95786).
T2 sequence: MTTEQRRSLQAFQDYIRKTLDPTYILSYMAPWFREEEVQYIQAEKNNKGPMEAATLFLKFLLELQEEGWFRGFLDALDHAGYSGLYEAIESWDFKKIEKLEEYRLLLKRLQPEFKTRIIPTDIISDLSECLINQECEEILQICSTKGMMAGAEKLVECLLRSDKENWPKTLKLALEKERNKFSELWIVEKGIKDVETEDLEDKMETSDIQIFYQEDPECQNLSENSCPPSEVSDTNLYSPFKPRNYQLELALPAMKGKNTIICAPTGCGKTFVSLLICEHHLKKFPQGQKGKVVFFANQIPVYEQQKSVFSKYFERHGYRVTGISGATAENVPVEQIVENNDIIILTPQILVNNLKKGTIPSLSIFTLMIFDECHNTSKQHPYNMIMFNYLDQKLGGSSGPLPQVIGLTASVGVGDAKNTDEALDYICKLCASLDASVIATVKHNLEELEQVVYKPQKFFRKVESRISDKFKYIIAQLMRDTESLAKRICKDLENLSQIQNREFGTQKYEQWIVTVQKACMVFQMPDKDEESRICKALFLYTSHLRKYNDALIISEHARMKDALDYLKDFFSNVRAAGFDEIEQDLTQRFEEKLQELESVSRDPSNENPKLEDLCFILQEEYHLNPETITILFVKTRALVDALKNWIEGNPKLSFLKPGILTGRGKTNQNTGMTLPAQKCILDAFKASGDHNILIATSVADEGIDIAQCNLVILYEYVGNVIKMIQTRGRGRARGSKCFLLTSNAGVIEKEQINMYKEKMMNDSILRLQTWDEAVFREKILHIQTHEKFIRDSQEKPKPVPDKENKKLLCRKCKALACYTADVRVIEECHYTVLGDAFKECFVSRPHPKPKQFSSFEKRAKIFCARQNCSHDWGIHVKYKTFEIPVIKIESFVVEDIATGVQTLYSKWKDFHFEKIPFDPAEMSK
The test is described as above.

The target in test [2] is T3, Flag-tagged EBV BFRF1 (Epstein-Barr virus (B95-8 strain)) (UniProt P03185).
T3 sequence: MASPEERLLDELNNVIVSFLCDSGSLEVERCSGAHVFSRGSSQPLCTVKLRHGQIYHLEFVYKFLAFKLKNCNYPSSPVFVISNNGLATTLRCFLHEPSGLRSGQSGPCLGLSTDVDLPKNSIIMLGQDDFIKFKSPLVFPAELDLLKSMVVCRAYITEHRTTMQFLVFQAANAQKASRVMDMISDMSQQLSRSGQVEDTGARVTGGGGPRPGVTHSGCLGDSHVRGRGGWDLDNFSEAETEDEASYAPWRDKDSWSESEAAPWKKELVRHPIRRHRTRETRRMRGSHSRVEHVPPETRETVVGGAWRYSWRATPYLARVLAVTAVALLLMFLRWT
The test is described as above.

The target in test [3] is T3, Flag-tagged EBV BFRF1 (Epstein-Barr virus (B95-8 strain)). Put plainly: co-IP; HEK293T transfected with BFRF1-Flag alone, lysed in RIPA buffer; anti-Flag mAb or nonspecific mouse IgG, protein A/G PLUS-Agarose; western blot for endogenous IKKi. (In general: Immunoblotting shows a protein as a band on a membrane.)

B1: Myc-tagged EBV BFRF1 (protein, UniProt P03185 1-336)
chain: T3 sequence
As for B1, the binding entry (in test [1]; with Flag-tagged IRF3; in the test with Flag-tagged RIG-I) was “no binding” throughout.

B2: Myc-tagged IKKi (inducible IκB kinase) (enzyme, UniProt Q14164 1-716)
chain: MQSTANYLWHTDDLLGQGATASVYKARNKKSGELVAVKVFNTTSYLRPREVQVREFEVLRKLNHQNIVKLFAVEETGGSRQKVLVMEYCSSGSLLSVLESPENAFGLPEDEFLVVLRCVVAGMNHLRENGIVHRDIKPGNIMRLVGEEGQSIYKLTDFGAARELDDDEKFVSVYGTEEYLHPDMYERAVLRKPQQKAFGVTVDLWSIGVTLYHAATGSLPFIPFGGPRRNKEIMYRITTEKPAGAIAGAQRRENGPLEWSYTLPITCQLSLGLQSQLVPILANILEVEQAKCWGFDQFFAETSDILQRVVVHVFSLSQAVLHHIYIHAHNTIAIFQEAVHKQTSVAPRHQEYLFEGHLCVLEPSVSAQHIAHTTASSPLTLFSTAIPKGLAFRDPALDVPKFVPKVDLQADYNTAKGVLGAGYQALRLARALLDGQELMFRGLHWVMEVLQATCRRTLEVARTSLLYLSSSLGTERFSSVAGTPEIQELKAAAELRSRLRTLAEVLSRCSQNITETQESLSSLNRELVKSRDQVHEDRSIQQIQCCLDKMNFIYKQFKKSRMRPGLGYNEEQIHKLDKVNFSHLAKRLLQVFQEECVQKYQASLVTHGKRMRVVHETRNHLRLVGCSVAACNTEAQGVQESLSKLLEELSHQLLQDRAKGAQASPPPIAPYPSPTRKDLLLHMQELCEGMKLLASDLLDNNRIIERLNRVPAPPDV
Take B2: the binding entry in test [2] was “binds”.

B3: endogenous IKKi (enzyme, UniProt Q14164 1-716)
chain: B2 chain
For B3, the binding result in test [3] is “binds”.

B4: HA-tagged IKKi (enzyme, UniProt Q14164 1-716)
chain: B2 chain
Take B4: the binding entry in the test with Flag-tagged IRF3 is given as “binds”.
